Assay results taken from patent US20190209506A1, “METHODS OF REDUCING OR PREVENTING OXIDATION OF LDL OR LIPID MEMBRANES IN A SUBJECT IN NEED THEREOF” (Amarin Pharmaceuticals Ireland Limited, priority 2018, published 2019).
Where “and” joins values, the source holds several entries; their conditions need not be identical. Equal entries are not always repeated. Further values from the same series stand in other lists.

Tested on: human LDL
Experiment: Copper-induced LDL oxidation, dose and time dependence, MDA (Example 17)
Format: biochemical
Protocol: LDL was isolated from human plasma by isopycnic centrifugation, separated into test samples of 100 μg/mL, and incubated at 37° C. for 30 min in the absence (vehicle) or presence of EPA over a range of concentrations of 1 to 10 μM. The samples were subsequently subjected to copper-induced oxidation. Following the copper-induced oxidation, LDL oxidation was measured over the course of six hours. Tables 8 and 9 enumerate the changes in MDA concentration expressed as molar equivalents for each of the vehicle and EPA test samples as a function of time (i.e., at 0 hours, 1 hour, 2 hours, 2.5 hours, and 3 hours).

CC/C=C\C/C=C\C/C=C\C/C=C\C/C=C\CCCC(=O)O [EPA, cis-5,8,11,14,17-eicosapentaenoic acid]
MDA Equivalent (EPA 1.0 μM, 3.5 Hour): 10.83 µM | MDA Equivalent (EPA 1.0 μM, 4 Hour): 9.94 µM | MDA Equivalent (EPA 1.0 μM, 6 Hour): 9.72 µM | MDA Equivalent (EPA 2.0 μM, 3 Hour): 8.81 µM and 9.11 µM and 9.33 µM | MDA Equivalent (EPA 2.0 μM, 3.5 Hour): 10.15 µM and 10.54 µM and 10.11 µM | MDA Equivalent (EPA 2.0 μM, 4 Hour): 9.48 µM and 9.79 µM and 9.96 µM | MDA Equivalent (EPA 2.0 μM, 6 Hour): 9.40 µM and 9.51 µM and 10.31 µM | MDA Equivalent (EPA 3.0 μM, 3 Hour): 5.76 µM and 6.45 µM and 6.29 µM | MDA Equivalent (EPA 3.0 μM, 3.5 Hour): 8.99 µM and 9.34 µM and 8.95 µM | MDA Equivalent (EPA 3.0 μM, 4 Hour): 9.72 µM and 9.92 µM and 9.91 µM | MDA Equivalent (EPA 3.0 μM, 6 Hour): 10.36 µM and 10.61 µM and 10.44 µM | MDA Equivalent (EPA 3.5 μM, 3 Hour): 2.28 µM and 2.61 µM and 1.39 µM | MDA Equivalent (EPA 3.5 μM, 3.5 Hour): 4.80 µM and 5.58 µM and 2.94 µM | MDA Equivalent (EPA 3.5 μM, 4 Hour): 7.07 µM and 7.76 µM and 5.08 µM | MDA Equivalent (EPA 3.5 μM, 6 Hour): 10.01 µM and 10.29 µM and 10.46 µM | MDA Equivalent (EPA 4.0 μM, 3 Hour): 2.35 µM and 1.43 µM | MDA Equivalent (EPA 4.0 μM, 6 Hour): 11.45 µM and 10.37 µM and 10.33 µM | MDA Equivalent (EPA 4.5 μM, 3 Hour): 0.61 µM and 0.51 µM and 0.53 µM | MDA Equivalent (EPA 4.5 μM, 3.5 Hour): 1.04 µM and 0.92 µM and 0.96 µM | MDA Equivalent (EPA 4.5 μM, 4 Hour): 1.27 µM and 1.03 µM and 1.15 µM | MDA Equivalent (EPA 4.5 μM, 6 Hour): 7.40 µM and 6.84 µM and 7.53 µM | MDA Equivalent (EPA 5.0 μM, 3 Hour): 0.37 µM and 0.38 µM and 0.42 µM | MDA Equivalent (EPA 5.0 μM, 3.5 Hour): 0.71 µM and 0.69 µM and 0.82 µM | MDA Equivalent (EPA 5.0 μM, 4 Hour): 0.71 µM and 0.84 µM and 0.96 µM | MDA Equivalent (EPA 5.0 μM, 6 Hour): 5.15 µM and 5.42 µM and 5.96 µM | MDA Equivalent (EPA 10.0 μM, 3 Hour): 0.13 µM and 0.11 µM and 0.07 µM | MDA Equivalent (EPA 10.0 μM, 3.5 Hour): 0.28 µM and 0.19 µM and 0.21 µM | MDA Equivalent (EPA 10.0 μM, 6 Hour): 1.01 µM and 0.87 µM and 0.82 µM
